Test results as given in a collection of fitness landscapes (doi:10.1016/j.celrep.2020.107928).
Over roughly 81,000 sequences, “one-hybrid fitness for binding NBS DNA” has its median near -0.1; the highest 2% begin near 0.36. This is one part of the list.

B1: Caulobacter ParB omega fusion; a variant is named by its letters at X, in order, B8GW30 (parent)
chain: MESVVVGEPGMSEGRRGLGRGLSALLGEVDAAPAQAPGEQLGGSREAPIEILQRNPDQPRRTFREEDLEDLSNSIREKGVLQPILVRPSPDTAGEYQIVAGERAWRAAQRAGLKTVPIMVRELDDLAVLEIGIIENVQRADLNVLEEALSYKVLMEKFERTQENIAQTIGKSXSHVANXMRLLXLPDEVQSYLVSGELTAXHARAIAAAADPVALAKQIIEGGLSVRETEALARKAPNLSAGKSKGGRPPRVKDTDTQALESDLSSVLGLDVSIDHRGSTGTLTITYATLEQLDDLCNRLTRGI

Variants of: B1
Test: one-hybrid fitness for binding NBS DNA (the Noc-binding site; scaled: cognate 1, non-cognate 0); higher = stronger binding
Conditions: with NBS DNA site
Method in brief: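 Fitness is the rescaled log change in variant-to-wild-type read ratio, measured by Illumina sequencing of plasmids before and after bacterial one-hybrid selection. The scale puts cognate at 1 and non-cognate at 0. Selection of Caulobacter ParB libraries, four specificity codons randomised, took place in E. coli USO with a HIS3 reporter, site 19 bp from the promoter, over 48 hours at 37°C on M9-minus-histidine with 0.1 mM IPTG and 5 mM 3-AT.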

Variant	one-hybrid fitness for binding NBS DNA
HIEG	≤ 0.2
TIKG	≤ 0.2
DRPC	≤ 0.2
PSSE	≤ 0.2
VIPQ	≤ 0.2
SLQD	≤ 0.2
WKFT	≤ 0.2
TPVH	≤ 0.2
WMHC	≤ 0.2
YRRN	≤ 0.2
GCDS	≤ 0.2
LQMG	≤ 0.2
CYYY	≤ 0.2
ATHR	≤ 0.2
TPPN	≤ 0.2
QDFT	≤ 0.2
RGDS	≤ 0.2
GPSP	≤ 0.2
IAST	≤ 0.2
IYKC	≤ 0.2
RYWP	≤ 0.2
MSHA	≤ 0.2
AEAP	≤ 0.2
AIEI	≤ 0.2

Variant	one-hybrid fitness for binding NBS DNA
HWHT	≤ 0.2
VWPT	≤ 0.2
RYYN	≤ 0.2
VYDS	≤ 0.2
FVVE	≤ 0.2
CWPS	≤ 0.2
HMCC	≤ 0.2
WSHF	≤ 0.2
MLMV	≤ 0.2
TFQC	≤ 0.2
ENSM	≤ 0.2
PLCA	≤ 0.2
TQGR	≤ 0.2
CGPL	≤ 0.2
MAWW	≤ 0.2
CNYG	≤ 0.2
CVKF	≤ 0.2
QQWS	0.397
AKRT	≤ 0.2
AHLF	≤ 0.2
INAS	≤ 0.2
QKVC	≤ 0.2
LHQW	≤ 0.2
TTTF	≤ 0.2

Variant	one-hybrid fitness for binding NBS DNA
GPPQ	≤ 0.2
RDTM	≤ 0.2
HMPT	≤ 0.2
NDQS	≤ 0.2
QMDY	≤ 0.2
SLCC	≤ 0.2
TRDT	≤ 0.2
KRVK	≤ 0.2
LKMH	≤ 0.2
YHKT	≤ 0.2
AKKP	≤ 0.2
GKVR	≤ 0.2
PDGT	≤ 0.2
LLMR	≤ 0.2
YEHY	≤ 0.2
KTQS	≤ 0.2
VSNC	≤ 0.2
QALH	≤ 0.2
LRLL	≤ 0.2
DYKG	≤ 0.2
LLAY	≤ 0.2
IIQR	≤ 0.2
HCFY	≤ 0.2
SAST	≤ 0.2

Variant	one-hybrid fitness for binding NBS DNA
TLFQ	≤ 0.2
NQPV	≤ 0.2
SWNS	≤ 0.2
HPST	≤ 0.2
GITC	≤ 0.2
TQAL	≤ 0.2
NINC	≤ 0.2
YIGS	≤ 0.2
LAMR	≤ 0.2
LFPC	≤ 0.2
AVTA	≤ 0.2
IMTG	≤ 0.2
DVVA	≤ 0.2
AGHY	≤ 0.2
YSLT	≤ 0.2
KCIW	≤ 0.2
DKAW	≤ 0.2
WCYE	≤ 0.2
ITVS	≤ 0.2
VCGR	≤ 0.2
NMMS	≤ 0.2
EYSL	≤ 0.2
RSFV	≤ 0.2
HRNY	≤ 0.2

Variant	one-hybrid fitness for binding NBS DNA
RMHS	0.486
GPAR	≤ 0.2
TPEL	≤ 0.2
WCCG	≤ 0.2
RNLF	≤ 0.2
TRDD	≤ 0.2
MTVV	≤ 0.2
HVAC	≤ 0.2
PFMT	≤ 0.2
RWTP	≤ 0.2
GTMS	≤ 0.2
KDCR	≤ 0.2
NTTW	≤ 0.2
SMRG	≤ 0.2
GSPI	≤ 0.2
FVPR	≤ 0.2
ARYK	≤ 0.2
GHIT	≤ 0.2
EAPM	≤ 0.2
ILLG	≤ 0.2
VMNF	≤ 0.2
CART	≤ 0.2
QMIK	≤ 0.2
LYRI	≤ 0.2

Variant	one-hybrid fitness for binding NBS DNA
FNGC	≤ 0.2
WSTL	≤ 0.2
AGAG	≤ 0.2
DSIV	≤ 0.2
PKSS	≤ 0.2
PWYF	≤ 0.2
MYSR	≤ 0.2
SILT	≤ 0.2
RCQI	≤ 0.2
SHRL	≤ 0.2
ASKT	≤ 0.2
NWNL	≤ 0.2
LCMR	≤ 0.2
WIPI	≤ 0.2
DGRR	≤ 0.2
AHMW	≤ 0.2
NQER	≤ 0.2
EVYV	≤ 0.2
PVPC	≤ 0.2
HYTC	≤ 0.2
PTTG	≤ 0.2
YMRS	≤ 0.2
TMWC	≤ 0.2
AWVR	≤ 0.2

Variant	one-hybrid fitness for binding NBS DNA
SHNK	≤ 0.2
TTLP	≤ 0.2
QRKS	0.778
CAKT	≤ 0.2
HCPL	≤ 0.2
KYYF	≤ 0.2
QTEQ	≤ 0.2
IYVR	≤ 0.2
VNHT	≤ 0.2
FRLL	≤ 0.2
WASG	≤ 0.2
RWRY	≤ 0.2
ATPM	≤ 0.2
MKVC	≤ 0.2
WLVS	≤ 0.2
IINP	≤ 0.2
CMRG	≤ 0.2
PYFF	≤ 0.2
HDNT	≤ 0.2
RGIL	≤ 0.2
HSLF	≤ 0.2
RYWQ	≤ 0.2
VTST	≤ 0.2
MTEL	≤ 0.2

Variant	one-hybrid fitness for binding NBS DNA
CMNR	≤ 0.2
QNVF	≤ 0.2
YFDC	≤ 0.2
MTCC	≤ 0.2
CRIN	≤ 0.2
LWTV	≤ 0.2
NQMP	≤ 0.2
SVNS	≤ 0.2
MMTR	≤ 0.2
PGMY	≤ 0.2
LLNS	≤ 0.2
MFNG	≤ 0.2
HKVG	≤ 0.2
MPVM	≤ 0.2
KFCR	≤ 0.2
KRGL	≤ 0.2
EKSN	≤ 0.2
WNTT	≤ 0.2
RVFI	≤ 0.2
KYTV	≤ 0.2
TTHP	≤ 0.2
MCGA	≤ 0.2
GTRF	≤ 0.2
QLNL	≤ 0.2

Variant	one-hybrid fitness for binding NBS DNA
STVP	≤ 0.2
NLMV	≤ 0.2
RLNY	≤ 0.2
TRYS	≤ 0.2
KCLT	≤ 0.2
SGSK	≤ 0.2
QPHC	≤ 0.2
IRTI	≤ 0.2
MGTY	≤ 0.2
NVCS	≤ 0.2
WREM	≤ 0.2
PRNR	≤ 0.2
YLIR	≤ 0.2
TQKS	≤ 0.2
RTLV	≤ 0.2
ESIG	≤ 0.2
IDPC	≤ 0.2
PRWY	≤ 0.2
RNDQ	≤ 0.2
PGFR	≤ 0.2
SHTD	≤ 0.2
LLMI	≤ 0.2
VQKS	≤ 0.2
AIAN	≤ 0.2

Variant	one-hybrid fitness for binding NBS DNA
QLTM	≤ 0.2
APSE	≤ 0.2
RSTN	≤ 0.2
RLPC	≤ 0.2
QYLS	0.256
HQCC	≤ 0.2
TPML	≤ 0.2
LWDW	≤ 0.2
RYFM	≤ 0.2
LYIT	≤ 0.2
LSLN	≤ 0.2
YPNV	≤ 0.2
QFNF	≤ 0.2
NPIG	≤ 0.2
LRPT	≤ 0.2
HSCC	≤ 0.2
ISNA	≤ 0.2
LASV	≤ 0.2
SKMC	≤ 0.2
KNAD	≤ 0.2
TAGT	≤ 0.2
VQKF	≤ 0.2
QGPY	≤ 0.2
SEWS	≤ 0.2

Variant	one-hybrid fitness for binding NBS DNA
WRAA	≤ 0.2
PGFW	≤ 0.2
RGNN	≤ 0.2
LFYS	≤ 0.2
RQYL	≤ 0.2
NCPI	≤ 0.2
FSMD	≤ 0.2
TTKW	≤ 0.2
HHFF	≤ 0.2
DPAT	≤ 0.2
SMEA	≤ 0.2
KCGL	≤ 0.2
LYYI	≤ 0.2
KFNY	≤ 0.2
ICKM	≤ 0.2
RANM	≤ 0.2
PVDV	≤ 0.2
QQDW	≤ 0.2
LSNC	≤ 0.2
NCAC	≤ 0.2
DWSI	≤ 0.2
SGAW	≤ 0.2
RCKS	0.612
RAVI	≤ 0.2

Variant	one-hybrid fitness for binding NBS DNA
RTCG	≤ 0.2
DFIG	≤ 0.2
TAVQ	≤ 0.2
HRWN	≤ 0.2
TLMY	≤ 0.2
STGF	≤ 0.2
MTRY	≤ 0.2
TVLG	≤ 0.2
CSNH	≤ 0.2
MRES	≤ 0.2
LENT	≤ 0.2
RIKT	0.623
LRQV	≤ 0.2
EMHT	≤ 0.2
GMFT	≤ 0.2
CYLN	≤ 0.2
RHKS	0.57
ANVY	≤ 0.2
HTPC	≤ 0.2
NLDR	≤ 0.2
IFAT	≤ 0.2
RGHE	≤ 0.2
TMTN	≤ 0.2
SKNR	≤ 0.2

Variant	one-hybrid fitness for binding NBS DNA
DTST	≤ 0.2
KFVF	≤ 0.2
KANG	≤ 0.2
RPRT	≤ 0.2
QSWV	≤ 0.2
SHAC	≤ 0.2
IQQR	≤ 0.2
RARA	0.309
PDKT	≤ 0.2
VNKS	≤ 0.2
ADSF	≤ 0.2
ITNH	≤ 0.2
DQSR	≤ 0.2
TFGG	≤ 0.2
PYTM	≤ 0.2
YNQR	≤ 0.2
MRVS	≤ 0.2
HDSR	≤ 0.2
